# Laboratory results from ChEMBL document CHEMBL4888484, “Replenishing the malaria drug discovery pipeline: Screening and hit evaluation of the MMV Hit Generation Library 1 (HGL1) against asexual blood stage Plasmodium falciparum ,using a nano luciferase reporter read-out” (2022).
# The whole screen tested about 150,000 compounds, of which about 540 (0.36%) showed an effect of 50% or more. Some of the results follow.
# System: Plasmodium falciparum
# Assay: Primary screen in NF54 nanoGlo assay, in single point, at 2uM, 72h; a lower Z score goes with more inhibition
# Assay type: functional, Erythrocyte
# Conditions: timepoint 72 hour
SMILES,% Inhibition,Z score
CC[C@H]1[C@H](NC(=O)c2c[nH]c(=O)c(Cl)c2)[C@H]2CCO[C@H]21,-7%,1
O=C(CCCc1nc(C2CC2)no1)N[C@H]1CCN(CC2CCCC2)C1,8%,-1.57
Cc1ccnc(NCCCc2nc(C)c(C)s2)n1,-10%,1.66
COC(=O)c1nc(NC(=O)CCc2c(C)n[nH]c2C)sc1CC(C)C,-5%,0.67
CC(=O)N(CCCN1CCOCC1)[C@H]1CCN(C(=O)COc2cccc(C)c2)C1,4%,-0.43
Cc1cnc2c(c1NC1CCCC1)c(=O)n(C)c(=O)n2C,-2%,0.26
Cc1cc(C)cc(CN2CCN(c3ncnc4onc(C)c34)CC2=O)c1,-9%,1.37
COC(=O)[C@H](CC1CCCCC1)NC(=O)c1cccc(F)c1F,-8%,1.28
Cc1cc(C(=O)N2CC(OCc3cccc(F)c3)C2)c(C)o1,-4%,0.81
N#Cc1nccnc1O[C@H]1CC[C@H](NC(=O)c2ccoc2)CC1,-5%,0.57
COc1ccc(-c2cn3cc(-c4ccccc4)c4c3n2CCCC4)cc1,-8%,1.46
N#CCCn1ncc2c(N3CCC4CCCCC4C3)ncnc21 (stereo not given),-9%,1.89
CCOC(=O)C1CCC2(CC1)NC(=O)[C@@H]1CCCCN12 (stereo not given in full),-3%,0.54
CCCN(Cc1sc(C)nc1C(F)(F)F)C[C@H]1CCCCO1,-7%,0.79
Cn1ncc(Cl)c1S(=O)(=O)N1CCN(C2CC2)CC1,-13%,1.13
O=C(Nc1ccc(N2CCCC2=O)cc1)NC1CCCCCCC1,0%,0.01
CN(CCCNC(=O)CNS(C)(=O)=O)c1ccccc1F,-1%,0.13
Brc1ccc(Oc2ncc(CN3CCOCC3)s2)cc1,31%,-0.7
OC[C@H](c1ccccc1)n1ccnc1-c1cc2n(n1)CCCNC2,-6%,0.84
COc1ccc(-c2cc(N)n(-c3nc(-c4ccc(C)cc4)cs3)n2)cc1,11%,-1.65
CC(C)(C)CC(=O)Nc1ccc2c(c1)cc(C(=O)Nc1ccc(C(F)(F)F)cc1)n2Cc1ccc(C(C)(C)C)cc1,1%,-0.11
CC(C)(C)c1nccc(NC(=O)c2ccoc2Br)n1,-4%,0.54

SMILES,% Inhibition,Z score
c1ccc2cc(Oc3ncnc4sccc34)ccc2c1,-2%,0.32
C[C@]1(O)CCN(C(=O)c2cncc(Cl)c2)C[C@H]1Cc1ccccc1,9%,-1.18
O=C(Cc1cccnc1)N1CCC(N2C[C@H](Oc3ccccc3)[C@@H]2c2ccncc2)CC1,-11%,1.43
Cc1nnsc1C(=O)NCC(C)(C)c1ccsc1,-5%,0.98
CCCN(Cc1ccc(OC)c(OC)c1)C[C@H](O)COC(C)C,-5%,0.66
CNc1cc(-c2ncc(F)c(N3CCOCC3)n2)c2cc[nH]c2n1,-7%,1.43
CN(C)[C@@H](CNC(=O)c1ccc(F)c(Cl)c1F)C1CC1,-11%,1.55
CCCS(=O)(=O)CCn1ccnc1,4%,-0.51
CC(C)(C)N(CC(N)=O)C(=O)c1scnc1C1CC1,2%,-0.27
CCC[C@@](C)(CCCNC(=O)c1cnc(OC(C)C)c(Cl)c1)C1OCCO1,1%,-0.11
OCCNc1nc(Nc2ccc(F)cc2)c2nn[nH]c2n1,-14%,2.2
CC(C)(CN1CCOCC1)CN1CCc2nocc2C1,-2%,0.26
Cn1c(=O)n2nnnc2c2ccccc21,-6%,0.89
O=C(Cn1nc(-c2ccncc2)oc1=S)c1ccc(Cl)cc1,-2%,0.37
CCc1nc(-c2cc(NC(=O)c3ccc(C)cc3)c(C)s2)no1,-4%,0.38
Cc1ccc(CCNC(=O)CCC(=O)Nc2c(F)cccc2F)o1,-14%,2.57
CC(=O)NC1CCC(Nc2ccc3c(c2)OC(C)(C)O3)CC1 (stereo not given),-7%,0.86
O=C(NCCc1ccco1)[C@@H]1CCN(c2ccccc2)C1=O,-10%,0.99
Cc1nn(C)c(Cl)c1CN(CCN1CCCCC1)C[C@H]1CCCN(C2CCCC2)C1,-10%,1.38
C[C@@H]1CN(Cc2nnnn2CC(=O)NCc2cccc(Cl)c2)C[C@H](C)O1,-11%,0.99
O=C(Nc1cccc2c1CCCC2)c1cccc2ccccc12,-15%,2.76
C[C@@H]1CN(CC(=O)NCc2csc(N3CCCC3)n2)C[C@H](C)O1,-10%,1.85

SMILES,% Inhibition,Z score
COCC(C)(C)C(=O)NCc1cccc2nsnc12,-1%,0.13
C[C@@H](Cc1ccco1)NC(=O)c1cc(-c2cccc(Cl)c2)[nH]n1,-5%,0.8
O=C(c1ccc(Cl)cn1)N(Cc1nccn1C(F)F)C1CC1,0%,0
CC1CCCN(C(=O)C(C)S(C)(=O)=O)C1 (stereo not given),-8%,1.33
O=C(N[C@H]1C[C@@H](c2cc(=O)[nH]c(C3CC3)n2)C1)c1cc(CO)ccn1,-12%,2.2
CC(C)(C)C(=O)N1CCc2ccc(OCc3ccc(C(=O)Nc4ccc(F)cc4)o3)cc2[C@@H]1c1cccc(F)c1,-2%,0.22
Cc1ccc(N2C(=O)C3C4C=CC(C4=C4CCCCC4)C3C2=O)cc1Cl (stereo not given),-11%,1.34
O=C(NC1CCCCCC1C(=O)O)c1cccs1 (stereo not given),-18%,2.48
CCn1c(CO)nnc1[C@H]1C[C@H](Nc2nc(C)nc3ccsc23)C1,-8%,1.25
Cc1cc(C(=O)N2CCNC[C@H]2C(F)F)oc1C,-7%,1.2
Cn1ccc2cccc(S(=O)(=O)NCCCCC(N)=O)c21,-4%,0.79
Cn1nnc2cc(C(=O)NCC3(CN4CCOCC4)CCCCC3)cnc21,-3%,0.53
N#Cc1cc(NC2CCCC2O)nc2ccccc12 (stereo not given),-8%,0.76
Cc1cccc(Cn2nc(C)c3[nH]c(C4CCOCC4)nc32)c1,-14%,1.85
O=C(CNc1ccc(Br)cc1Cl)NC(=O)NC1CCCC1,-7%,0.96
CCOC(=O)c1ccc2c(c1)N(Cc1ccnn1CC)CCO2,-4%,0.61
CC(C)C(=O)N1CCC([C@@H]2CN(CCCc3ccccc3)C[C@H]2CO)CC1,-18%,2.16
Cc1cc(C)c(S(=O)(=O)Nc2ccc(N3CCNCC3)c(C(=O)N3CCCCCC3)c2)cc1C,-12%,1.35
Cn1nc(CN(C2CCCC2)S(=O)(=O)c2cccnc2)c2c1CCC2,-20%,3.34
Cc1cc(C(=O)N[C@H]2CCN(Cc3c(C)noc3C)C[C@@H]2O)nc(C)n1,-25%,2.72
O=C(NC1CC1)N1C2CCC1CC(Oc1ccncc1)C2 (stereo not given),-21%,2.43
Cn1cc(C(=O)N2CC[C@H](O)C23CCCC3)c2ccccc21,-13%,1.87

SMILES,% Inhibition,Z score
O=C(NCc1ccco1)C1CCC(N2C(=O)c3ccccc3C2=O)CC1 (stereo not given),9%,-1.15
CC(C)c1ccc2cc(C(=O)N3CCN4C(=O)CN(C)C(=O)[C@@H]4C3)[nH]c2c1,0%,-0.03
CCOC(=O)[C@@H](NC(=O)Cc1c(C)n[nH]c1C)C1CCCCCC1,-12%,1.89
CC(C)(C)c1nc(C(=O)N[C@@H](CCF)C(=O)O)cs1,-14%,1.97
Cc1cc(O)c([C@H](c2cccnc2)N2CCN(C)CC2)c(=O)n1Cc1ccccc1,-7%,1.01
CN(C)CC(C)(C)CNc1nc2c(c(=O)[nH]1)Cc1ccccc1OC2,9%,-1.69
O=C(C[C@H]1COCCN1C(=O)CCn1cc(Cl)cn1)NCc1ccncc1,-2%,0.33
Cc1ccc(C)n1-c1ccc2snnc2c1,6%,-0.63
CC(=O)NCc1cc2n(n1)CCN(c1cc(OC(C)C)nc(N)n1)C2,-10%,1.1
Oc1ccc(Cl)c(CN2CCOC[C@@H](O)C2)c1Cl,-8%,1.2
Cc1cc(C)c2ccc(C(=O)N3CCN(c4ncc[nH]c4=O)CC3)cc2n1,-3%,0.43
O=C(c1cccc(C#Cc2ccccc2)c1)N1CCN(C(c2ccccc2)c2ccccc2)CC1,-8%,1.42
Cc1cnc(CN2CCN([C@H](C#N)c3ccccc3)CC2)cn1,-1%,0.1
Cc1ccc(CN2C(=O)N(c3cccc(F)c3)c3ncccc3S2(=O)=O)cc1,-14%,1.4
CCCCNC(=O)[C@@H]1CCCC[C@@H]1C(=O)Nc1cc(C)c2nc(N)sc2c1,13%,-2.4
COCCN(Cc1ccsc1)S(=O)(=O)c1cccc(C(=O)N2CCC2)c1,-7%,1.18
O=C(O)C1(Oc2ccc3c(c2)CCC3)CCN(c2ncccn2)CC1,1%,-0.17
Cc1cc(C)n2ncc(-c3noc(C4CCCCN4C(=O)C4CC4C)n3)c2n1 (stereo not given),5%,-0.59
CCCN1C[C@@H](NC(=O)c2ccccc2-c2cccc(C)c2)CC1=O,8%,-0.85
